{"source": "patent US10821151B2", "about": "“Compositions and methods for treating cancer and persistent viral infections” (SUSAVION BIOSCIENCES, INC., priority 2015, dated 2020)", "tested_on": "human PBMCs", "experiment": "Human Phospho-Kinase Array on PBMC lysates", "details": "100 nM", "experimental": "FIG. 13A and FIG. 13B illustrates the changes in phosphorylation of signal transduction kinases in human PBMCs in culture treated with 100 nM SV6D for 5, 10 or 15 min. Cell lysates were spread on an array of capture antibodies and phosphorylated forms were detected with a Human Phospho-Kinase Array (R&D Systems (Minneapolis, Minn.).\nTo determine whether binding of SV6D to cell-surface receptors would transfer signals to the cytoplasm of cells, cultures of PBMCs were incubated with 100 nM SV6D and samples were removed after 5, 10 or 15 minutes and compared with the phosphorylation state of signal transduction kinase intermediates in untreated cells. As illustrated in FIGS. 13A and 13B, the phosphorylated form of several intermediates changed rapidly and dramatically. […] These rapid changes may represent remodeling of the phosphor-proteins."}
{"substance": "[NQHTPRGGGS]4K3-NH2 [SV6D]", "values": [{"measurement": "phosphorylated forms of proteins p53, CREB and PRAS40", "setting": "10 minutes", "result": "markedly decreased"}, {"measurement": "phosphorylated forms of proteins p53, CREB and PRAS40", "setting": "15 minutes", "result": "rebounded"}]}
